The structures appear in SMILES notation. The whole screen tested about 39,000 compounds, of which about 220 (0.56%) showed activity. The list shows a part of the results.
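Also: static incubation at 37 °C against the wild-type strain, values averaged over two biological replicates.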

For this assay, the system named is Escherichia coli K-12 BW25113. As to the kind of experiment: relative growth (OD600 normalised to plate interquartile mean) (fraction); higher = less growth inhibition, active = 0.2 or less. The conditions noted are these: 50 µM; LB; incubation time: overnight (16-24 h).
As for `COCC#Cc1ccc([C@@H]2[C@@H](CO)N3C(=O)CN(C(=O)c4cccnc4)C[C@H]23)cc1`, the relative growth was inactive: 1.02. Then `CCC(=O)N1Cc2cc(C(=O)NCc3cccc(F)c3)nc(-c3cccc(C4=CCCC4)c3)c2[C@H]1CCO`, with inactive: 0.996.

Regarding `CC1(C)C=Cc2cc(C#N)ccc2O1`, the relative growth is inactive: 0.995.

Regarding `C[C@@H]1CN([C@H](C)CO)C(=O)Cc2cc(NC(=O)CCN3CCOCC3)ccc2O[C@@H]1CN(C)C(=O)NC1CCCCC1`, the relative growth was inactive: 0.994. As for `C[C@H](CO)N1C[C@H](C)[C@H](CN(C)Cc2ccc(Oc3ccccc3)cc2)Oc2c(NC(=O)Nc3ccc(C(F)(F)F)cc3)cccc2C1=O`, the figure is inactive: 1.08. For the compound `CC(C)NC(=O)N(C)C[C@H]1Oc2ccc(NC(=O)Cc3ccccc3)cc2CC(=O)N([C@@H](C)CO)C[C@H]1C`, the relative growth was inactive: 0.978. On to `Cc1ccccc1C(OCCN(C)C)c1ccccc1.O=C(O)CC(O)(CC(=O)O)C(=O)O` (centres undefined), for which the relative growth was inactive: 1.01. Then `C[C@@H]1CN([C@@H](C)CO)C(=O)c2cccc(NC(=O)CCCCCC(=O)Nc3ccccc3N)c2O[C@@H]1CN(C)Cc1ccc(Oc2ccccc2)cc1`, with inactive: 0.982; and `CCCN(C)C[C@@H]1OCCCC[C@@H](C)Oc2ccc(NC(=O)c3ccccc3)cc2C(=O)N([C@H](C)CO)C[C@@H]1C`, with inactive: 1.01. Take `COc1cccc(S(=O)(=O)N(C)C[C@H]2Oc3cc(C#CCC(C)C)ccc3S(=O)(=O)N([C@H](C)CO)C[C@H]2C)c1`: the relative growth was inactive: 0.926. As to `C[C@@H]1CN([C@H](C)CO)C(=O)c2cc(NS(C)(=O)=O)ccc2O[C@@H](C)CCCCO[C@H]1CN(C)S(=O)(=O)c1ccccc1`, the relative growth is inactive: 0.989.

Turning to `C[C@H]1CCCCO[C@H](CN(C)C(=O)Nc2ccc(C(F)(F)F)cc2)[C@@H](C)CN([C@@H](C)CO)C(=O)c2cc(NC(=O)CCC(F)(F)F)ccc2O1`, the relative growth is inactive: 1.02. Then `Cc1noc(C)c1S(=O)(=O)N(C)C[C@@H]1OCCCC[C@@H](C)Oc2ccc(NC(=O)Nc3ccc(C(F)(F)F)cc3)cc2C(=O)N([C@H](C)CO)C[C@@H]1C`, with inactive: 1.01. Then `O=C(C=CC=Cc1ccc2c(c1)OCO2)N1CCCCC1`, with inactive: 1.02.

As for `C[C@@H]1COC(=O)[C@@H](NC(=O)OCC2c3ccccc3-c3ccccc32)CC=CC[C@H](CC(=O)NCCO)C(=O)N1`, the relative growth is inactive: 1.02. Then `Cc1ccc(S(=O)(=O)N(C)C[C@H]2OCCCC[C@H](C)Oc3ccc(NC(=O)CCC(F)(F)F)cc3C(=O)N([C@H](C)CO)C[C@H]2C)cc1`, with inactive: 0.977; and `CC(=O)N(C)C[C@@H]1Oc2ncc(C#C[C@@H](C)O)cc2C(=O)N([C@@H](C)CO)C[C@@H]1C`, with inactive: 1; and `CN(C)CCCNC(=O)[C@H]1[C@H](CO)[C@H]2Cn3c(ccc(-c4ccncc4)c3=O)[C@@H]1N2C(=O)C1CC1`, with inactive: 0.985. Then `NCc1cc(-c2ccccc2Cl)no1`, with inactive: 0.976; and `C[C@H]1CN([C@@H](C)CO)C(=O)Cc2cc(NS(=O)(=O)c3cccs3)ccc2O[C@@H]1CN(C)Cc1ccc(Cl)c(Cl)c1`, with inactive: 0.987; and `Cc1ccc(S(=O)(=O)Nc2ccc3c(c2)CC(=O)N([C@@H](C)CO)C[C@H](C)[C@H](CN(C)C(=O)Nc2ccc(C(F)(F)F)cc2)O3)cc1`, with inactive: 1.01. In the case of `C[C@@H]1CN([C@@H](C)CO)S(=O)(=O)c2ccc(C#C[C@@H](C)O)cc2O[C@@H]1CN(C)C(=O)Nc1ccccc1`, the relative growth was inactive: 0.98. Then `C[C@H](CO)N1C[C@H](C)[C@@H](CN(C)Cc2ccc(Cl)c(Cl)c2)Oc2ccc(NC(=O)Nc3ccc4c(c3)OCO4)cc2CC1=O`, with inactive: 1.01.

`C[C@@H]1CCCCO[C@@H](CN(C)C(=O)Nc2ccccc2)[C@@H](C)CN([C@H](C)CO)C(=O)c2cc(NS(=O)(=O)c3cccs3)ccc2O1`: the relative growth is inactive: 0.875. On to `O=C(c1cccnc1)N1C[C@@H]2[C@H](c3ccccc31)[C@@H](CO)N2C(=O)CN1CCOCC1`, for which the relative growth is inactive: 0.988. Regarding `CC(=O)Nc1ccc(C(C)C)c(C)c1`, the relative growth is inactive: 0.952. Then `COc1ccc(CN(C)C[C@H]2OCCCC[C@H](C)Oc3ccc(NC(=O)c4ccccc4)cc3C(=O)N([C@H](C)CO)C[C@H]2C)cc1`, with inactive: 0.998; and `O=C(C[C@@H]1CC[C@H]2[C@@H](COC[C@@H](O)CN2C(=O)Nc2cccc(Cl)c2)O1)NCc1ccccc1F`, with inactive: 0.976. As for `C[C@H]1CN([C@@H](C)CO)C(=O)Cc2cc(NS(C)(=O)=O)ccc2O[C@H]1CN(C)C(=O)Nc1ccc(F)cc1`, the figure is inactive: 1.04. As for `CC(C)C#Cc1cnc2c(c1)C(=O)N([C@H](C)CO)C[C@@H](C)[C@H](CN(C)C(=O)c1ccc3c(c1)OCO3)O2`, the figure is inactive: 0.99; as for `C[C@@H]1CN([C@H](C)CO)C(=O)c2c(c3ccccc3n2C)-c2ccccc2CO[C@@H]1CN(C)S(=O)(=O)c1ccc(C(F)(F)F)cc1`, inactive: 1.03. Regarding `NNC(=O)CS(=O)(=O)c1ccc(Cl)cc1`, the relative growth is inactive: 0.989.

For the compound `Cc1ccc(N2C(=O)c3ccccc3[C@@H](C(=O)NCCN3CCOCC3)[C@@H]2c2ccc(CO)cc2)nc1`, the relative growth is inactive: 0.966. Take `COCC(=O)Nc1ccc2c(c1)C(=O)N(C)C[C@H](OC)[C@@H](C)CN(Cc1cccc(F)c1)[C@H](C)CO2`: the relative growth was inactive: 0.987. Then `C[C@H]1CN([C@@H](C)CO)C(=O)c2cccc(NS(C)(=O)=O)c2O[C@H]1CN(C)Cc1ccc2c(c1)OCO2`, with inactive: 1.01. As for `Cc1noc(C)c1S(=O)(=O)Nc1ccc2c(c1)C(=O)N([C@H](C)CO)C[C@@H](C)[C@H](CN(C)CC1CCCCC1)OCCCC[C@@H](C)O2`, the figure is inactive: 0.988. Regarding `C[C@@H]1CCCCO[C@H](CN(C)Cc2ccccc2)[C@@H](C)CN([C@H](C)CO)C(=O)c2cc(NC(=O)Nc3cccc4ccccc34)ccc2O1`, the relative growth is inactive: 0.986. Then `C[C@@H]1CN([C@@H](C)CO)C(=O)c2cc(NC(=O)CCC(F)(F)F)ccc2O[C@@H](C)CCCCO[C@@H]1CN(C)C(=O)Nc1ccc(C(F)(F)F)cc1`, with inactive: 1.01; and `COc1ccc(NC(=O)N(C)C[C@H]2Oc3c(NC(=O)CCCCCC(=O)Nc4ccccc4N)cccc3C(=O)N([C@H](C)CO)C[C@H]2C)cc1`, with inactive: 0.998.

The record behind these values is the supplement of paper PMC9446081.
